According to the supplement of paper PMC8728848:
Some of the results follow.

What was measured:
Experiment in all cases: glycan array binding signal (z-score within array); higher = stronger binding
Conditions in all cases: glycan notation: IUPAC condensed, linker removed
[1] = target: Fuc(a1-2)Gal6S(b1-3)GlcNAc6S
Method in brief: (§1)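 Columns mapping to the same glycan were averaged after glycan names were converted to IUPAC-condensed notation. The data come from 3228 arrays in the Consortium for Functional Glycomics database, limited to those with an available protein sequence. Binding is reported as a within-array Z-score averaged across arrays of one protein sequence and across linkers.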

[2] = target: Fuc(a1-2)Gal6S(b1-4)Glc
Method in brief: as §1

[3] = target: Fuc(a1-2)Gal6S(b1-4)Glc6S
Method in brief: as §1

[4] = target: Fuc(a1-2)[Gal(a1-3)]Gal
Method in brief: as §1

[5] = target: Fuc(a1-2)[Gal(a1-3)]Gal(b1-3)GalNAc
Method in brief: as §1

[6] = target: Fuc(a1-2)[Gal(a1-3)]Gal(b1-3)GalNAc(b1-3)Gal(a1-4)Gal(b1-4)Glc
Method in brief: as §1

[7] = target: Fuc(a1-2)[Gal(a1-3)]Gal(b1-3)GlcNAc
Method in brief: as §1

[8] = target: Fuc(a1-2)[Gal(a1-3)]Gal(b1-3)GlcNAc(b1-2)Man(a1-3)[Fuc(a1-2)[Gal(a1-3)]Gal(b1-3)GlcNAc(b1-2)Man(a1-6)]Man(b1-4)GlcNAc(b1-4)GlcNAc
Method in brief: as §1

[9] = target: Fuc(a1-2)[Gal(a1-3)]Gal(b1-3)GlcNAc(b1-2)Man(a1-3)[Fuc(a1-2)[Gal(a1-3)]Gal(b1-3)GlcNAc(b1-2)Man(a1-6)]Man(b1-4)GlcNAc(b1-4)[Fuc(a1-6)]GlcNAc
Method in brief: as §1

[10] = target: Fuc(a1-2)[Gal(a1-3)]Gal(b1-3)GlcNAc(b1-3)GalNAc
Method in brief: as §1

[11] = target: Fuc(a1-2)[Gal(a1-3)]Gal(b1-3)GlcNAc(b1-6)GalNAc
Method in brief: as §1

[12] = target: Fuc(a1-2)[Gal(a1-3)]Gal(b1-4)Glc
Method in brief: as §1

[13] = target: Fuc(a1-2)[Gal(a1-3)]Gal(b1-4)GlcNAc
Method in brief: as §1

[14] = target: Fuc(a1-2)[Gal(a1-3)]Gal(b1-4)GlcNAc(b1-2)Man
Method in brief: as §1

[15] = target: Fuc(a1-2)[Gal(a1-3)]Gal(b1-4)GlcNAc(b1-2)Man(a1-3)[Fuc(a1-2)[Gal(a1-3)]Gal(b1-4)GlcNAc(b1-2)Man(a1-6)]Man(b1-4)GlcNAc(b1-4)GlcNAc
Method in brief: as §1

[16] = target: Fuc(a1-2)[Gal(a1-3)]Gal(b1-4)GlcNAc(b1-2)Man(a1-3)[Fuc(a1-2)[Gal(a1-3)]Gal(b1-4)GlcNAc(b1-2)Man(a1-6)]Man(b1-4)GlcNAc(b1-4)[Fuc(a1-6)]GlcNAc
Method in brief: as §1

[17] = target: Fuc(a1-2)[Gal(a1-3)]Gal(b1-4)GlcNAc(b1-3)GalNAc
Method in brief: as §1

[18] = target: Fuc(a1-2)[Gal(a1-3)]Gal(b1-4)GlcNAc(b1-3)[Fuc(a1-2)[Gal(a1-3)]Gal(b1-4)GlcNAc(b1-6)]GalNAc
Method in brief: as §1

[19] = target: Fuc(a1-2)[Gal(a1-3)]Gal(b1-4)GlcNAc(b1-6)GalNAc
Method in brief: as §1

[20] = target: Fuc(a1-2)[Gal(a1-3)]Gal(b1-4)[Fuc(a1-3)]Glc
Method in brief: as §1

[21] = target: Fuc(a1-2)[Gal(a1-3)]Gal(b1-4)[Fuc(a1-3)]GlcNAc
Method in brief: as §1

[22] = target: Fuc(a1-2)[Gal(a1-3)]Gal(b1-4)[Fuc(a1-3)]GlcNAc(b1-3)GalNAc
Method in brief: as §1

[23] = target: Fuc(a1-2)[Gal(a1-4)]Gal(b1-4)GlcNAc
Method in brief: as §1

[24] = target: Fuc(a1-2)[GalNAc(a1-3)]Gal
Method in brief: as §1

[25] = target: Fuc(a1-2)[GalNAc(a1-3)]Gal(b1-3)GalNAc(a1-3)[Fuc(a1-2)]Gal(b1-4)GlcNAc
Method in brief: as §1

[26] = target: Fuc(a1-2)[GalNAc(a1-3)]Gal(b1-3)GalNAc(b1-3)Gal(a1-4)Gal(b1-4)Glc
Method in brief: as §1

[27] = target: Fuc(a1-2)[GalNAc(a1-3)]Gal(b1-3)GlcNAc
Method in brief: as §1

[28] = target: Fuc(a1-2)[GalNAc(a1-3)]Gal(b1-3)GlcNAc(b1-2)Man(a1-3)[Fuc(a1-2)[GalNAc(a1-3)]Gal(b1-3)GlcNAc(b1-2)Man(a1-6)]Man(b1-4)GlcNAc(b1-4)GlcNAc
Method in brief: as §1

[29] = target: Fuc(a1-2)[GalNAc(a1-3)]Gal(b1-3)GlcNAc(b1-2)Man(a1-3)[Fuc(a1-2)[GalNAc(a1-3)]Gal(b1-3)GlcNAc(b1-2)Man(a1-6)]Man(b1-4)GlcNAc(b1-4)[Fuc(a1-6)]GlcNAc
Method in brief: as §1

[30] = target: Fuc(a1-2)[GalNAc(a1-3)]Gal(b1-3)GlcNAc(b1-3)GalNAc
Method in brief: as §1

[31] = target: Fuc(a1-2)[GalNAc(a1-3)]Gal(b1-3)GlcNAc(b1-6)GalNAc
Method in brief: as §1

[32] = target: Fuc(a1-2)[GalNAc(a1-3)]Gal(b1-4)Glc
Method in brief: as §1

[33] = target: Fuc(a1-2)[GalNAc(a1-3)]Gal(b1-4)GlcNAc
Method in brief: as §1

[34] = target: Fuc(a1-2)[GalNAc(a1-3)]Gal(b1-4)GlcNAc(b1-2)Man
Method in brief: as §1

[35] = target: Fuc(a1-2)[GalNAc(a1-3)]Gal(b1-4)GlcNAc(b1-2)Man(a1-3)[Fuc(a1-2)[GalNAc(a1-3)]Gal(b1-4)GlcNAc(b1-2)Man(a1-6)]Man(b1-4)GlcNAc(b1-4)GlcNAc
Method in brief: as §1

[36] = target: Fuc(a1-2)[GalNAc(a1-3)]Gal(b1-4)GlcNAc(b1-2)Man(a1-3)[Fuc(a1-2)[GalNAc(a1-3)]Gal(b1-4)GlcNAc(b1-2)Man(a1-6)]Man(b1-4)GlcNAc(b1-4)[Fuc(a1-6)]GlcNAc
Method in brief: as §1

[37] = target: Fuc(a1-2)[GalNAc(a1-3)]Gal(b1-4)GlcNAc(b1-3)Gal(b1-4)GlcNAc
Method in brief: as §1

[38] = target: Fuc(a1-2)[GalNAc(a1-3)]Gal(b1-4)GlcNAc(b1-3)Gal(b1-4)GlcNAc(b1-3)Gal(b1-4)GlcNAc
Method in brief: as §1

[39] = target: Fuc(a1-2)[GalNAc(a1-3)]Gal(b1-4)GlcNAc(b1-3)GalNAc
Method in brief: as §1

[40] = target: Fuc(a1-2)[GalNAc(a1-3)]Gal(b1-4)GlcNAc(b1-3)[Fuc(a1-2)[GalNAc(a1-3)]Gal(b1-4)GlcNAc(b1-6)]GalNAc
Method in brief: as §1

[41] = target: Fuc(a1-2)[GalNAc(a1-3)]Gal(b1-4)GlcNAc(b1-6)GalNAc
Method in brief: as §1

[42] = target: Fuc(a1-2)[GalNAc(a1-3)]Gal(b1-4)[Fuc(a1-3)]GlcNAc
Method in brief: as §1

[43] = target: Fuc(a1-2)[GalNAc(a1-3)]Gal(b1-4)[Fuc(a1-3)]GlcNAc(b1-3)GalNAc
Method in brief: as §1

[44] = target: Fuc(a1-2)[GalNAc(a1-4)]Gal(b1-4)GlcNAc
Method in brief: as §1

[45] = target: Fuc(a1-2)[GalNAc(b1-3)]Gal
Method in brief: as §1

B1: PX9937F-bfa-516-16-516 (Bacteroides fragilis) (protein)
chain: LDIDPTSSIADSNYWKTEAQFSTFNVGLHALLRECSFNFFLLGEPRADIYGDVPFGGEATQGMERLPFNTINKENTGISNFAGMYKVINQINLMIAKTKETTVLSEAGKNYYLGEAYGMRAYLYFHLLRSWGDVILYLDYTNGASLDLSNLSKAASPAEEVMKQIKEDITASEKGFGSDYSFKYGRYYWSMAATQMLKGEVYLWSGRQMGGGTADYTTAKTALQSIVSNANVSLQDDFSKVFAYNNKDNSEIIFSIRNAKDEYNMWDDRFRQNLVPQQAYMTSTYCNKEGVSFKDLPEGQLNGLIRLQIRYDLYNKAFRDGDTRKDASMTAVYQKQQDGTVKYIAPFCNKYQGVLLDGASQRSFLNDYPIYRYADCLLLLAEAKALLGEDPTAEINQVRERAYGKEFFEANKATLAYPNDKGDFYTDNKYMSGDEDPLEAILKERMREFMFEGKRWYDLRLLGADYVTKRTSAVATRLLWPINESVLTDNPALKQTPGYQN
Q: How did the “glycan array binding signal (z-score)” value [1] turn out when B1 was run?
A: -0.047

Q: And the “glycan array binding signal (z-score)” value [2]?
A: 0.175

Q: What about the “glycan array binding signal (z-score)” value [3] of the same binder?
A: 0.137

Q: And the “glycan array binding signal (z-score)” value [4]?
A: -0.057

Q: And the “glycan array binding signal (z-score)” value [5]?
A: 0.078

Q: What about the “glycan array binding signal (z-score)” value [6] of the same binder?
A: -0.351

Q: And the “glycan array binding signal (z-score)” value [7]?
A: 0.033

Q: And the “glycan array binding signal (z-score)” value [8]?
A: -0.058

Q: And the “glycan array binding signal (z-score)” value [9]?
A: 0.417

Q: What about the “glycan array binding signal (z-score)” value [10] of the same binder?
A: -0.246

Q: What about the “glycan array binding signal (z-score)” value [11] of the same binder?
A: 0.688

Q: And the “glycan array binding signal (z-score)” value [12]?
A: 0.153

Q: And the “glycan array binding signal (z-score)” value [13]?
A: -0.012

Q: And the “glycan array binding signal (z-score)” value [14]?
A: -0.047

Q: What about the “glycan array binding signal (z-score)” value [15] of the same binder?
A: 1.48

Q: And the “glycan array binding signal (z-score)” value [16]?
A: -0.006

Q: What about the “glycan array binding signal (z-score)” value [17] of the same binder?
A: 0.046

Q: And the “glycan array binding signal (z-score)” value [18]?
A: -0.377

Q: And the “glycan array binding signal (z-score)” value [19]?
A: 0.021

Q: What about the “glycan array binding signal (z-score)” value [20] of the same binder?
A: -0.265

Q: And the “glycan array binding signal (z-score)” value [21]?
A: -0.039

Q: And the “glycan array binding signal (z-score)” value [22]?
A: -0.058

Q: What about the “glycan array binding signal (z-score)” value [23] of the same binder?
A: -0.237

Q: What about the “glycan array binding signal (z-score)” value [24] of the same binder?
A: -0.222

Q: And the “glycan array binding signal (z-score)” value [25]?
A: -0.369

Q: What about the “glycan array binding signal (z-score)” value [26] of the same binder?
A: -0.334

Q: And the “glycan array binding signal (z-score)” value [27]?
A: -0.122

Q: And the “glycan array binding signal (z-score)” value [28]?
A: -0.141

Q: And the “glycan array binding signal (z-score)” value [29]?
A: -0.135

Q: And the “glycan array binding signal (z-score)” value [30]?
A: -0.037

Q: And the “glycan array binding signal (z-score)” value [31]?
A: 0.016

Q: What about the “glycan array binding signal (z-score)” value [32] of the same binder?
A: -0.23

Q: And the “glycan array binding signal (z-score)” value [33]?
A: -0.319

Q: What about the “glycan array binding signal (z-score)” value [34] of the same binder?
A: -0.254

Q: What about the “glycan array binding signal (z-score)” value [35] of the same binder?
A: 2.69

Q: And the “glycan array binding signal (z-score)” value [36]?
A: -0.174

Q: What about the “glycan array binding signal (z-score)” value [37] of the same binder?
A: -0.188

Q: And the “glycan array binding signal (z-score)” value [38]?
A: -0.001

Q: What about the “glycan array binding signal (z-score)” value [39] of the same binder?
A: 0.767

Q: And the “glycan array binding signal (z-score)” value [40]?
A: 0.164

Q: And the “glycan array binding signal (z-score)” value [41]?
A: -0.015

Q: What about the “glycan array binding signal (z-score)” value [42] of the same binder?
A: -0.175

Q: What about the “glycan array binding signal (z-score)” value [43] of the same binder?
A: -0.123

Q: And the “glycan array binding signal (z-score)” value [44]?
A: 0.892

Q: What about the “glycan array binding signal (z-score)” value [45] of the same binder?
A: 1.64
